# Results taken from paper PMC4336329 (PLoS ONE, 2015).
# In all, about 310,000 compounds went through this assay and about 2,200 (0.71%) showed an effect of 50% or more. The effect is printed as a negative number. The list shows a part of the results.
# Biological target: human ether-à-go-go-related gene (hERG) potassium channel (human, UniProt Q12809)
# Assay: primary screen, population patch clamp on CHO cells stably expressing hERG
# Chain of human ether-à-go-go-related gene (hERG) potassium channel (Q12809 whole entry, looked up): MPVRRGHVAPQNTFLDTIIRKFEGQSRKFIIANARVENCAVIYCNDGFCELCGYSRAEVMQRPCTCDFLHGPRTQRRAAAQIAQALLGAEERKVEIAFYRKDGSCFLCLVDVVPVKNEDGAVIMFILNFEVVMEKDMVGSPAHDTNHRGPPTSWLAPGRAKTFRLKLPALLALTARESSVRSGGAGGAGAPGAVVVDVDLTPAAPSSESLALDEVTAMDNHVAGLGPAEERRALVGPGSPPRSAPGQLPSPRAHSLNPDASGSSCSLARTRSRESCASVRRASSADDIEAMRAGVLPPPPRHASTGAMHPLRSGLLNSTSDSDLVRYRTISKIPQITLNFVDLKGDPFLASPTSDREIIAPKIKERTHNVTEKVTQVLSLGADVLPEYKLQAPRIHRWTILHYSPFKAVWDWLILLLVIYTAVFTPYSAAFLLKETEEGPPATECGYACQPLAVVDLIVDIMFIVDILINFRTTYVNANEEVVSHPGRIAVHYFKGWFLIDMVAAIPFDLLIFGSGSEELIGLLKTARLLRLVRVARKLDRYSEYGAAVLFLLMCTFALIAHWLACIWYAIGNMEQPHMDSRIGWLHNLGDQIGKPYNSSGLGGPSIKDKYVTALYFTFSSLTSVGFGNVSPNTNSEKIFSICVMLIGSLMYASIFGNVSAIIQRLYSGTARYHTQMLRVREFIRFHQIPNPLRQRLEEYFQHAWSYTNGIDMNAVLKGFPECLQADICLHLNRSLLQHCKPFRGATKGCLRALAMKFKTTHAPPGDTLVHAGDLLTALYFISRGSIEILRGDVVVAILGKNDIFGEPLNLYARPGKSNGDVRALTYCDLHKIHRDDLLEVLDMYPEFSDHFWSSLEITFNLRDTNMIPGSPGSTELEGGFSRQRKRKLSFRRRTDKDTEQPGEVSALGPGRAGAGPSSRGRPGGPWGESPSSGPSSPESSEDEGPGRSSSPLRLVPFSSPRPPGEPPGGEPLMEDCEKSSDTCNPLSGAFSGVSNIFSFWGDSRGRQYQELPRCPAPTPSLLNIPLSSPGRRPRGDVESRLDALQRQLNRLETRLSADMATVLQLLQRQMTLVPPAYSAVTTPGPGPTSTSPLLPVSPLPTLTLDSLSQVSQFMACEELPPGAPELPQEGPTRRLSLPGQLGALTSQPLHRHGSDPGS
row,Compound,"hERG current change (%, negative = inhibition) at 1uM [%]"
1,COc1ccc(Nc2nnc(SCC3CCCO3)s2)cc1 (stereo not shown),-7.15
2,O=C(Nc1ccc(Cl)cc1)Nc1ccc2c(c1)OCO2,12.5
3,Cc1ccc(S(=O)(=O)NC(=NC(C)C)c2ccccc2)cc1,2.11
4,COc1ccc(S(=O)(=O)N2CCN(C(=O)C3CCCCC3)CC2)cc1,17.3
5,O=C(NCCCN1CCCC1=O)c1ccc([N+](=O)[O-])s1,3.09
6,CCc1nnc(NC(=O)c2ccc(-c3cccc(C(F)(F)F)c3)o2)s1,10.7
7,CC1CCN(C(=O)C(=O)Nc2sc3c(c2C(=O)O)CC(C)(C)OC3)CC1,15
8,COc1cc(C(=O)Nc2ccccc2SCc2cc(=O)n3nc(C)sc3n2)cc(OC)c1OC,13.4
9,O=c1c(Cl)cc(Cl)nn1-c1ccccc1,-2.11
10,O=C(Cc1coc2ccc3ccccc3c12)Nc1nnc(C2CC2)s1,10.6
11,COc1ccc(CCNC(=O)C(=O)NCC2OCCN2S(=O)(=O)c2ccccc2)cc1 (stereo not shown),8.53
12,COc1ccccc1CNC(=O)CN1CCN(c2ccc(C(C)=O)cc2)CC1,10.6
13,CC(C)c1ccc(N(CC(=O)NC2CCCCC2)C(=O)CNC(=O)c2ccco2)cc1,2.41
14,O=C(CN1CCCCCC1)Nc1ccc(Br)cc1[N+](=O)[O-],15.4
15,O=C(c1cc(-c2ccco2)nc2ccccc12)N1CCCC(C(F)(F)F)C1 (stereo not shown),5.58
16,Cc1cccc(NC(=O)COc2cccc3c2CCN(C)C3=O)c1C,-4.87
17,CSCCC(NS(=O)(=O)c1c(Cl)cccc1Cl)C(=O)O (stereo not shown),12.8
18,NC(=S)Nn1c(-c2ccccc2)nc2ccccc2c1=O,11
19,O=S(=O)(Nc1ccc(N2CCOCC2)cc1)c1cc(Cl)ccc1Cl,7.82
20,O=C(O)c1cnc(-c2ccccc2)nc1Sc1ccccc1,17.9
21,CC(C)CN(C(=O)CCCc1nc2ccccc2c(=O)[nH]1)c1c(N)n(Cc2ccccc2)c(=O)[nH]c1=O,19.1
22,Cc1ccccc1CSCc1nc2ccccc2[nH]1,9.14

row,Compound,"hERG current change (%, negative = inhibition) at 1uM [%]"
1,O=C(c1ccc(C(F)(F)F)cc1)C1CCCN(C(=O)CCN2CCCO2)C1 (stereo not shown),3.83
2,Cc1ccc(C)c(N2CCN(C(c3ccc(N(C)C)cc3)c3nnnn3C(C)(C)C)CC2)c1 (stereo not shown),7.25
3,CC(=O)Nc1ccc(S(=O)(=O)NCC(=O)OCC(=O)NC(=O)c2cccn2C)cc1,-6.07
4,Cc1csc(=O)n1CC(=O)OCC(=O)Nc1cc(S(=O)(=O)N2CCOCC2)ccc1Cl,8.22
5,Cc1ccc2oc(=O)cc(CN3CCCCC3)c2c1,12.5
6,COc1ccc(OCCNC(=O)c2ccccc2Cl)cc1,10.8
7,O=C(Nc1ccc(C(=O)N2CCCCC2)cc1)c1ccccc1Cl,-6.44
8,CCOC(=O)CNC(=O)C1(/C=C/c2ccccc2)CC(=O)N1c1ccc(OC)cc1 (stereo not shown),12.3
9,COc1ccc(CCN2CC(C(=O)Nc3nnc(Cc4ccccc4)s3)CC2=O)cc1OC (stereo not shown),2.87
10,CCN1C(=O)CS/C1=C(\C#N)S(=O)(=O)c1ccccc1,9.68
11,Cc1ccc(-c2cc(-c3ccc(Cl)cc3)c(C#N)c(N)n2)o1,1.06
12,CN(C)S(=O)(=O)c1ccc(NC(=O)C2CC(=O)N(Cc3ccccc3)C2)cc1 (stereo not shown),14.7
13,O=C(CCCN1C(=O)S/C(=C/C=C/c2ccccc2)C1=O)Nc1ccc(C(=O)O)cc1,15
14,CC(CNC(=O)c1cc(COc2c(F)cccc2F)on1)Oc1cccnc1 (stereo not shown),7.88
15,Cc1nc2sc(C(c3cccs3)N3CCN(C(=O)c4ccco4)CC3)c(O)n2n1 (stereo not shown),12.7
16,CO/N=C(\c1nonc1N)N1CCN(c2ccc([N+](=O)[O-])cc2Cl)CC1,13.9
17,CC(=O)N=c1c(C#N)cc2c(=O)n3cccc(C)c3nc2n1CCCOC(C)C,-13.3
18,CCOC(=O)N1CCN(S(=O)(=O)c2cc(C)c(C)cc2C)CC1,9.08
19,COC(=O)c1ccc(NC(=O)CSc2nn3c(=O)c(C)nnc3s2)cc1,12.4
20,CCCCn1c(N)c(N(CC)C(=O)c2ccccc2F)c(=O)[nH]c1=O,19.7
21,Cc1ccccc1Cn1c2ccccc2c2cnn(CC(=O)NCc3ccco3)c(=O)c21,11
